Data reported in ChEMBL document CHEMBL5308541, “MAIP: An Open-Source Tool to Enrich High-Throughput Screening Output and Identify Novel, Druglike Molecules with Antimalarial Activity” (ACS Med Chem Lett, 2023).
Among all 150,000 compounds or so, about 540 (0.36%) showed an effect of 50% or more. The list shows a part of the results.

test system: Plasmodium falciparum; assay: Primary screen in NF54 nanoGlo assay, in single point, at 2uM, 72h; a lower Z score goes with more inhibition; assay type: functional, Erythrocyte; conditions: timepoint 72 hour

SMILES | % Inhibition | Z score
CCc1cc(NCc2c(C)cc(CO)cc2C)nc(C)n1 | -5% | 1.12
Nc1ccc(Oc2ccccc2-c2ccccc2)cc1 | 10% | -1.94
CS(=O)(=O)N(Cc1csc(C2CCCCC2)n1)c1ccccc1F | -2% | 0.23
CCN1CCC[C@H](CNCc2cn(-c3ccccc3)nc2C(C)C)C1 | 38% | -7.61
CC1(C)Oc2ccsc2[C@H](NCc2ccc(C#N)cc2)[C@H]1O | -11% | 2.25
CO[C@H]1C[C@@H](CN2CCCC2)N(c2cc(NCc3nnc[nH]3)ncn2)C1 | -3% | 0.66
CC(C)N1CCN(CCCN2CCN3CCC2C3)CC1 (centres undefined) | -6% | 0.85
O=C(c1coc2cc(F)ccc12)N1CCN2CCCC2C1 (centres undefined) | -1% | 0.12
CN(Cc1cccc(Oc2cccc(C(F)(F)F)c2)c1)[C@H]1C[C@H]2C[C@@H](O)C[C@H]2C1 | -9% | 1.37
Cc1cccc(Cn2cc(CCn3cncn3)nn2)c1Br | -5% | 1.17
c1ccc([C@@H]2CN(c3nccc(-c4cccnc4)n3)CCN2)cc1 | 3% | -0.62
CN(C(=O)[C@H]1CC(=O)N(c2ccccc2Br)C1)C1CCN(CCc2ccncc2)CC1 | 0% | -0.02
CCCN(CCC)C(=O)c1cccc(Nc2ncc(-c3cccc(C)c3)cn2)c1 | -7% | 1.25
C1=CC[C@@H](CN2CCOc3ccc(CN4CCC(Oc5cccnc5)CC4)cc3C2)CC1 | -14% | 2.51
CC(O)CN1CCC(CN(C)CC2CCN(C(=O)OC(C)(C)C)C2)CC1 (centres undefined) | -1% | 0.13
NC1CCCCCC1NCCCN1CCNCC1 (centres undefined) | 3% | -0.66
O=C(CCc1nnc(-c2ccc(-c3ccccc3)cc2)o1)NC[C@@H]1CCCN2CCCC[C@H]12 | 29% | -4.93
CCNc1nc(NCc2ccccc2)c2cn[nH]c2n1 | -6% | 1.21
COc1cc2nc(N3CCN(C)[C@H](c4ncc[nH]4)C3)nc(N)c2cc1OC | 3% | -0.58
CC(C)(C)OC1CN(C(=O)c2nc(C(F)(F)F)n3ccccc23)C1 | -1% | 0.23
CCc1n[nH]c(=O)c(-c2nc(-c3c[nH]c4ncccc34)cs2)c1CC | 10% | -1.73

SMILES | % Inhibition | Z score
C[C@H](O)CN(C)C1CCN(C(=O)c2ncnc3[nH]ccc23)CC1 | 2% | -0.28
CC(C)c1nc(NC2CCN(Cc3ccccn3)CC2)c2cnn(C)c2n1 | -3% | 0.63
Cc1cccc(NC[C@H]2CCN(Cc3cnn4ccccc34)C2)n1 | -12% | 2.04
CC(C)N(C(=O)c1ccc2ccccc2n1)c1ccc(Nc2ccccc2)cc1 | 5% | -0.86
Cn1ncc2c(N)nc(NCCCOc3cccc4cccnc34)nc21 | -9% | 1.61
F[C@H]1C[C@@H](CNc2ccc3ccccc3n2)N(Cc2cncnc2)C1 | 12% | -1.86
Cc1cccc(OCC(=O)NCC2CCN(Cc3nccn3C3CC3)CC2)c1C | -6% | 1.29
CCCNC(=O)CCc1ccc2[nH]c(-c3ccccc3)nc2c1 | -5% | 0.86
COc1cc([C@H](C)NC2CCN(c3ccc(Cl)cc3)CC2)ccn1 | 2% | -0.37
CN1C[C@H](CN2CCC(c3nccc(-c4cncnc4)n3)CC2)OC1=O | -8% | 1.69
Cc1noc(-c2cccc(NC(=O)c3ccccc3-c3ncc(-c4ccccc4)o3)c2)n1 | -8% | 1.16
CN(C)C1(CNc2nc(C(F)(F)F)nc3cc(F)ccc23)CCCCCC1 | 61% | -9.21
NCC1(O)CCN(c2ccnc3cc(F)c(Cl)cc23)CC1 | 95% | -20.37
CC(C)c1n[nH]c2c1CN(C(=O)CCn1ccc(=O)[nH]c1=O)CC2 | -12% | 2.1
CN(C)CCN(C(=O)c1c[nH]c2ccccc12)c1nc2c(C(F)(F)F)cccc2s1 | -8% | 1.26
CO[C@@H]1C[C@H](CNc2nc3cc(F)ccc3o2)N(c2ccncn2)C1 | -7% | 1.43
Cc1ccc(-c2cc(Nc3nc4cc(S(=O)(=O)N(C)C)ccc4o3)nc(-c3ccccc3)c2)cc1 | -17% | 3.65
Nc1ccc(-c2nc3c(F)cccc3[nH]2)cc1 | -6% | 1.26
CC/N=C(\NCC)NCCN1CCN(C)CC1 | -11% | 2.35
CN1CCN(C[C@H]2CCCN(c3cc(C(F)(F)F)nc(N4CCCC4)n3)C2)CC1 | 2% | -0.31
CC(C)N(C)c1ccc(CN[C@H]2CCN(c3ccccn3)C2)cn1 | -2% | 0.44

SMILES | % Inhibition | Z score
CC1(C)CC(Nc2ncnc(-c3ccccc3)n2)CC(C)(C)N1 | 8% | -1.55
CC(=O)N1CC2=C(C1=O)[C@@H](c1cccc(OCc3cccnc3)c1)c1c[nH]c3cccc(c13)N2 | -11% | 1.82
c1cc(CNc2ccc3nccnc3n2)cc(Cn2cncn2)c1 | -7% | 1.45
CCCN1CCC(CC(=O)N[C@H]2CCCN(C3CCCCCC3)C2)CC1 | -14% | 2.44
Fc1ccc(-c2noc(-c3cccc(Nc4nccc(C(F)(F)F)n4)c3)n2)nc1 | -7% | 1.23
Cc1ccc(NC(=O)C(=O)N(C)CCC(C)(C)O)c(C)c1 | -3% | 0.55
Cc1nc(O)c(Cl)c(-c2ccc([C@H](C)N(C)C)cc2)n1 | 9% | -1.86
c1cc(N2CCC[C@H](NCc3cnc4cnccn34)C2)ncn1 | -2% | 0.4
Cc1n[nH]c(C)c1S(=O)(=O)N[C@@H](CC(=O)O)Cc1ccccc1 | -1% | 0.18
N#CCNC1CCCCC1C(F)(F)F (centres undefined) | 0% | -0.01
CCC(=O)N1CC[C@H](Nc2cncc(-n3ccnc3C)n2)C1 | -1% | 0.2
CCn1cnc2c(Nc3cc(F)cc(N(C)C)c3)ncnc21 | 9% | -1.71
CC(=O)N(C)c1ccc(NC(=O)CN2CC(N3CCCC[C@@H]3C)C2)cc1 | -8% | 1.63
FC(F)(F)c1cnc(Nc2ccc3[nH]ncc3c2)c(Cl)c1 | 4% | -0.69
O=C(NCCc1c(C(F)(F)F)[nH]c2ccccc12)[C@@H]1C[C@H]1C1CCNCC1 | 0% | 0
c1coc(CN2CCC(NCCCn3ccc4ccccc43)CC2)c1 | -8% | 1.28
CN(C)C(C)(C)CNc1ccc(C(=O)C2CC2)cc1S(N)(=O)=O | -9% | 1.86
CN(C)c1nc(NCC2CCN(CC3CC3)CC2)ncc1F | -9% | 1.99
Cn1cc(-c2cncc(CNC(=O)c3ccc4cc[nH]c4c3)c2)cn1 | -11% | 2.25
COc1cc(OC)c2cc(CN[C@H](CO)Cc3ccc(O)cc3)cnc2c1 | -10% | 1.74
COC(=O)c1cccc(NC2CCN(C(=O)Cc3ccc4cn[nH]c4c3)CC2)c1 | -12% | 2

SMILES | % Inhibition | Z score
CS(=O)(=O)C1CCC(CNc2cc(-n3ccnc3)ncn2)CC1 (centres undefined) | 7% | -1.58
CC(C)Nc1nc(NCCO)nc(N2CCC(N3CCO[C@@H](C)C3)CC2)n1 | -6% | 0.93
Nc1nc2c(c(NCc3ccccc3-n3cncn3)n1)CCCC2 | -2% | 0.28
COc1cc2nc(N3CCC[C@H](c4nc(N(C)C)no4)C3)nc(N)c2cc1OC | -3% | 0.69
CS(=O)(=O)NC1C(NC(=O)Cn2ccc(=O)[nH]c2=O)C2CCOC21 (centres undefined) | -10% | 1.71
O=C(NC1CCCCC1O)c1ccc(-c2cccc(CN3CCCC3)c2)cc1 (centres undefined) | -4% | 0.95
O=C(Nc1ccccc1)c1ccc(N2CC[C@H](NCc3cccc(O)c3)C2)nc1 | -1% | 0.12
Cn1ncc2c(N)nc(N3CC4CN(CCCn5cccn5)CC4(CO)C3)nc21 (centres undefined) | 1% | -0.25
C[C@@H](C(=O)N1CCC(Oc2cnccn2)CC1)N1CCN(C)CC1 | -4% | 0.59
c1cnn(CCCN2CCC(c3nnc[nH]3)CC2)c1 | 1% | -0.13
Cc1cc(C(=O)N2CCNC(=O)[C@@H]2C(C)C)c2cc(Cl)ccc2n1 | -11% | 2.13
c1ccc(N[C@H]2CCN(c3ccnc(N4CCCCC4)n3)C2)cc1 | 9% | -1.89
CN1C[C@@H](n2cnc(-c3ccccc3)c2-c2nc3ccccc3[nH]2)CCC1=O | -8% | 1.46
CCN(CC)CCC[C@H](C)NC(=O)c1ccc(-c2cc(-c3ccc(N4CCCCC4)cc3)[nH]n2)cc1 | 0% | 0.05
Cc1cccc(-c2nc(CN3CCC(C(=O)N4CCC(Cc5nc(C6CCOCC6)no5)CC4)CC3)c(C)o2)c1 | -7% | 1.47
CN1CCN([C@H]2CCN(C(=O)c3ccc(-c4cncnc4)cc3)C2)CC1 | 2% | -0.42
Cn1cc(CC(=O)N2CC(Nc3ncccn3)C2)c2ccccc21 | 6% | -1.09
CN1CCN(C2COCC2Nc2nccc3ccccc23)CC1 (centres undefined) | -4% | 0.78
Cc1cc(F)ccc1N1CCC(NCCCNc2cccnc2)CC1 | 31% | -6.15
